PubChem BioAssay AID588342 (National Center for Advancing Translational Sciences (NCATS), 2011)
Screen size: about 360,000 compounds; about 25,000 (6.9%) were called active. Inconclusive results, whose numbers are uncertain, are shown with a selection of clear calls. The call rests on the fitted dose curve; in most records, active means well fitted inhibition curve with a large enough effect; inconclusive means small, poorly fitted or top-dose-only effect; inactive means flat fitted curve, though single readings scatter. Potencies of inconclusive entries are doubtful fits and often do not repeat.

Target: Luciferin 4-monooxygenase (Photinus pyralis) (UniProt P08659)
Experiment: qHTS profiling assay for firefly luciferase inhibitor/activator using purifed enzyme and Km concentrations of substrates (counterscreen for miR-21 project); further: nearly all actives have a fitted effect of over 55% in size
Conditions: purified FLuc, luminescence inhibition; series mostly up to 57.5 µM
In short: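 Biochemical qHTS of compounds, final roughly 60 µM downward over six points, against 10 nM purified firefly luciferase using Km concentrations of substrates (10 uM D-luciferin, 10 uM ATP) in Tris acetate pH 7.5 buffer; luminescence output.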
Potency means the concentration at half of the fitted maximal effect; tags describe the fitted curve by direction and shape.

Chain of UniProt P08659 (P08659 whole entry, looked up): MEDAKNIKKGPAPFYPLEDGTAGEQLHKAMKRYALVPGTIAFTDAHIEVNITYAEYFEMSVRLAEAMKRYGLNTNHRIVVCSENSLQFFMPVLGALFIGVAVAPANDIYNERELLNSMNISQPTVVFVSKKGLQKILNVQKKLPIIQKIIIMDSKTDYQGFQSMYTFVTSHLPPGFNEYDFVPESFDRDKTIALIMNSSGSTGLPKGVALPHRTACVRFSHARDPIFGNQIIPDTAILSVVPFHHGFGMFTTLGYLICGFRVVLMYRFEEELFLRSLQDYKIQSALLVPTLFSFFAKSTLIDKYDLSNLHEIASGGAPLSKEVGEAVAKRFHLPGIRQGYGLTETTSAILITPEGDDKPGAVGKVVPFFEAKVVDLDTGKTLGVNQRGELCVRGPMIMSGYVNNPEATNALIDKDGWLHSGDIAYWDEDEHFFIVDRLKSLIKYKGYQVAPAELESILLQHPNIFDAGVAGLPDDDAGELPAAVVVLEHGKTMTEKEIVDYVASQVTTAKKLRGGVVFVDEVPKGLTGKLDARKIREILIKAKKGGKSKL

Row | SMILES | Potency
1 | O=C(O)C1CCN(C(=O)COc2ccc3c4c(c(=O)oc3c2)CCC4)CC1 | inconclusive: 37.9 µM [inhibitor, partial curve, poor fit]
2 | O=C1C(=O)c2ccccc2C(O)=C1c1cccc([N+](=O)[O-])c1 | inconclusive: 37.9 µM [inhibitor, partial curve, poor fit]
3 | Cc1ccc(C(=O)NCCc2nnc3ccc(SCC(=O)N4CCCC4)nn23)cc1 | inconclusive: 26.9 µM [inhibitor, single point]
4 | COc1cc(NC(=O)c2cc(-c3cccc(OC)c3)n[nH]2)cc(OC)c1 | active: 12 µM
5 | CCOC(=O)c1c(NC(=O)CSc2nc3cccnc3n2C)sc(C(C)=O)c1C | inactive
6 | CCOC(=O)N1CCN(C(=O)/C(=C/c2cccs2)NC(=O)c2cccs2)CC1 | inactive
7 | CC(C)Cc1ccc(S(=O)(=O)NCC2CCCO2)cc1 (configuration not stated) | inactive
8 | CN1C(=O)/C(=C\C=C2/CCCN2C)N(C)C1=S | inconclusive: 26.9 µM [inhibitor, partial curve, poor fit]
9 | COC(=O)C(CC(=O)c1ccc(Cl)cc1)c1ccc(C(C)C)cc1 (configuration not stated) | inconclusive: 37.9 µM [inhibitor, partial curve, poor fit]
10 | O=C(NC1CCC(O)CC1)c1ccc(-c2ccc([N+](=O)[O-])cc2)o1 (configuration not stated) | inconclusive: 37.9 µM [inhibitor, single point]
11 | O=c1c(/C=N/Nc2ccccc2)c(Sc2nnnn2-c2ccccc2)nc2ccccn12 | inconclusive: 23.9 µM [inhibitor, partial curve]
12 | O=C(CSc1ccc(/C=N/NC(=O)c2cccc(F)c2)o1)Nc1ccccc1 | inconclusive: 21.3 µM [inhibitor, single point]
13 | CCOc1ccc(-n2nc3ccc(NC(=O)Cc4ccccc4)cc3n2)cc1 | inactive
14 | Cc1ccc(/C=c2\sc3nc(-c4cccs4)nn3c2=O)o1 | inconclusive: 6.01 µM [inhibitor, partial curve, poor fit]
15 | CC(=O)c1ccc(NC(=O)c2cc(C)no2)cc1 | inconclusive: 37.9 µM [inhibitor, partial curve, poor fit]
16 | Cc1cc(-c2ccc(C)c(S(=O)(=O)N3CCOc4ccc(Cl)cc43)c2)on1 | inactive
17 | COc1ccc(-c2csc(NC(=O)C3=NN(c4ccccc4)C(=O)CC3)n2)cc1 | active: 7.57 µM
18 | c1ccc(-c2nc(-c3ccco3)cs2)nc1 | active: 15.1 µM
19 | CC(C)(C)c1ccc(C2CC2C(=O)N/N=C\c2cc3ccccc3nc2Cl)cc1 (configuration not stated) | inconclusive: 30.1 µM [inhibitor, partial curve, poor fit]
20 | Cc1ccc(-c2csc(NC(=O)c3ccno3)n2)cc1 | active: 21.3 µM
21 | N#Cc1c(/N=C/c2cccs2)sc2c1CCCCC2 | active: 0.379 µM
22 | Cc1noc(C)c1S(=O)(=O)Nc1ccc(C(=O)N2CCC(C)CC2)cc1 | inactive
23 | Cc1ccc(-c2cnn(-c3cccc([N+](=O)[O-])c3)c2N)cc1 | active: 12 µM
24 | COc1n[nH]c(C(=O)Nc2cc(Cl)ccc2Cl)c1[N+](=O)[O-] | inconclusive: 19 µM [inhibitor, partial curve]

Row | SMILES | Potency
25 | Cc1cc(NS(=O)(=O)c2ccc(NC(=O)CSc3nc4sc(C)c(C)c4c(=O)[nH]3)cc2)no1 | inconclusive: 19 µM [inhibitor, partial curve]
26 | CC(C)N(Cc1ccccc1)C(=S)Nc1cccnc1 | inactive
27 | CCCSc1nn2c(=O)c3ccccc3nc2s1 | active: 7.57 µM
28 | COc1cc(NC(=O)c2ccc(F)cc2)c(OC)cc1Cl | inconclusive: 30.1 µM [inhibitor, partial curve, poor fit]
29 | CCN(CC)c1ccc(/C=C(\C#N)C(N)=S)cc1 | active: 21.3 µM
30 | N/C(=N\OC(=O)CCCc1ccccc1)c1cccc([N+](=O)[O-])c1 | inconclusive: 23.9 µM [inhibitor, partial curve, poor fit]
31 | COc1ccc(C(=O)NC2CCCc3c2cnn3-c2cccc(C)c2C)o1 (configuration not stated) | inactive
32 | O=C(COc1ccccc1)Nc1ccccc1Cl | active: 15.1 µM
33 | CC(=O)Oc1ccc2c(c1)O/C(=C\c1ccncc1)C2=O | inconclusive: 33.8 µM [inhibitor, partial curve, poor fit]
34 | CC(C)CNC(=S)NC(=O)c1ccc(Cl)cc1Cl | inconclusive: 15.1 µM [inhibitor, partial curve, poor fit]
35 | CCCC[C@@H]1CNC(=S)N1CCCC | inactive
36 | COc1ccc(S(=O)(=O)N2CCCCCC2)cc1C(=O)N1CCCCC1 | active: 16.9 µM
37 | O=C(CCc1ccccc1)NCc1nc2cccnc2n1Cc1ccc(F)cc1 | inactive
38 | N#Cc1ccccc1CN1C(=O)c2ccccc2Sc2ccc(C(=O)OCc3ccco3)cc21 | inactive
39 | Cc1ccc(CN2CCN(CC(C)C)C(CCO)C2)s1 (configuration not stated) | active: 16.9 µM
40 | COc1ccc(C(=O)NCc2csc(-c3cccs3)n2)cc1 | inactive
41 | Cc1ccc(C(=O)OCC(=O)NC2CCCCC2)s1 | inconclusive: 19 µM [inhibitor, single point]
42 | COc1ccccc1OCCSc1nc(-c2ccc(C(C)(C)C)cc2)nc2cc(=O)[nH]n12 | inconclusive: 19 µM [inhibitor, partial curve]
43 | Cc1cc(C(=O)COc2ccc(-c3nnco3)cc2)c(C)n1Cc1ccccc1 | inconclusive: 37.9 µM [inhibitor, single point]
44 | CC(C)CN(C)C(=O)CCc1nnc(Cc2ccc(-c3ccccc3)cc2)o1 | inconclusive: 23.9 µM [inhibitor, partial curve, poor fit]
45 | Cc1noc(C(=O)Nc2cccc(Cl)c2)c1Cl | inconclusive: 23.9 µM [inhibitor, single point]
46 | Cc1c(Cl)c([N+](=O)[O-])nn1Cc1ccc(C(=O)N/N=C\c2cc(Cl)ccc2O)o1 | inconclusive: 23.9 µM [inhibitor, single point]
47 | O=C(N/N=C/C(Cl)=C/c1ccc([N+](=O)[O-])cc1)C(=O)Nc1ccccc1C(=O)O | inconclusive: 37.9 µM [inhibitor, single point]
48 | COc1ccc(-c2nnc(NC(=O)C3CC3)o2)cc1 | inconclusive: 26.9 µM [inhibitor, single point]

Row | SMILES | Potency
49 | Cc1cc(C)c2c(=O)[nH]c(SCc3ccc([N+](=O)[O-])cc3)nc2n1 | inconclusive: 10.7 µM [inhibitor, partial curve]
50 | COC(=O)N/N=C/c1cn(CCOc2ccccc2)c2ccccc12 | inconclusive: 21.3 µM [inhibitor, single point]
51 | CCc1ccccc1N1CC(c2nc3ccccc3n2CCCOc2ccc(Cl)cc2)CC1=O (configuration not stated) | inconclusive: 23.9 µM [inhibitor, partial curve]
52 | CC(C)CCNC(=O)c1ccc(NC(=O)C2=CSCCO2)cc1 | inconclusive: 37.9 µM [inhibitor, single point]
53 | CCn1nc(NC(=O)Cc2ccc(OC)cc2)c2cc3cc(C)ccc3nc21 | inconclusive: 23.9 µM [inhibitor, single point]
54 | c1ccc(-c2ncc3ccccn23)cc1 | inconclusive: 37.9 µM [inhibitor, partial curve, poor fit]
55 | COc1cc(OC)c(NC(=O)c2csc3c2CCC(C)C3)cc1Cl (configuration not stated) | inconclusive: 13.5 µM [inhibitor, partial curve]
56 | CCN1CCCC1Cn1cnc2c([nH]c3ccc(OC)cc32)c1=O (configuration not stated) | inactive
57 | COc1ccc(NC(=O)COc2ccc3c(c2)OCO3)cc1 | inconclusive: 37.9 µM [inhibitor, single point]
58 | CCCc1nn(C)c(C(=O)Nc2cccc(C)c2)c1Cl | active: 16.9 µM
59 | CN(C)c1cccc(C(=O)NC2CCCCCC2)c1 | active: 13.5 µM
60 | O=C(CN1CCCCC1)Nc1ccc(NC(=O)c2ccccc2Cl)cc1Cl | inconclusive: 30.1 µM [inhibitor, single point]
61 | O=C(NCc1cccs1)c1csc2ccccc12 | inconclusive: 13.5 µM [inhibitor, partial curve]
62 | COc1cccc(NC(=O)CN(C)C(=O)c2cccnc2Nc2cccc(C(F)(F)F)c2)c1 | inactive
63 | CCOc1ccc(N(CC(=O)NCc2ccc(OC)cc2)S(C)(=O)=O)cc1 | inconclusive: 21.3 µM [inhibitor, partial curve]
64 | Cc1cc(C)c2c(N)c(C(=O)c3ccccc3)oc2n1 | active: 23.9 µM
65 | Fc1ccc(C2CC(c3ccco3)=NN2c2ccccc2)cc1 (configuration not stated) | inconclusive: 21.3 µM [inhibitor, partial curve, poor fit]
66 | O=C(/C=C/NNC(=O)c1ccccc1)c1ccc([N+](=O)[O-])cc1 | inconclusive: 23.9 µM [inhibitor, partial curve]
67 | NNC(=O)COc1ccc(C2SCCS2)cc1 | inconclusive: 30.1 µM [inhibitor, partial curve, poor fit]
68 | COc1ccc(-c2cnn3c(N)c(S(=O)(=O)C(C)(C)C)cnc23)cc1 | inconclusive: 21.3 µM [inhibitor, single point]
69 | Cc1c(C(=O)Cc2ccccc2)n(C)c2ccccc12 | inconclusive: 26.9 µM [inhibitor, partial curve, poor fit]
70 | COc1ccc2sc(-c3ccc(N(C)C)cc3)c(-c3cnc(OC)nc3)c2c1 | inconclusive: 6.01 µM [inhibitor, single point]
71 | CN1CCN(C(=S)c2cn(CCOc3ccccc3F)c3ccccc23)CC1 | inconclusive: 26.9 µM [inhibitor, single point]
72 | CC(C)Oc1cccc(-c2nnc(SCC(=O)Nc3ccc4c(c3)OCCO4)n2N)c1 | inconclusive: 33.8 µM [inhibitor, partial curve, poor fit]
